From the supplement of paper PMC10126150 come the findings set out here.

Values marked as one replicate rest on one cluster of the flow cell; about a third of the high ones do not repeat.
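Note: ATP exposure 15 min at 22 °C before imaging.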

This data set deals with ATP. The experiment in a line: switch fluorescence ratio, 500 uM ATP over buffer (Cy3 cluster intensity, sum of 5 cycles each) (fold (ratio)); higher = stronger signal-on switching upon ATP binding; sequences stand for … in TCGTCGGCAGCGTCAGATGTGTATAAGAGACAGTTTTTTTTTTTTTTTTTTTTTTTTT…TC. The following applies: aptamer strand: ATP DNA aptamer (quencher-CACCTGGGGGAGTATTGCGGAGGAAGG + anchor), 100 nM annealed; ATP concentration: 500 uM; one replicate. In outline: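 For every switch-domain sequence, the fluorescence ratio is the mean of per-cluster values, each being summed target-cycle Cy3 intensity over summed buffer-cycle Cy3 intensity. Clusters outside 100-1000 RFU were excluded. On a modified Illumina MiSeq flow-cell, the Cy3-labelled switching-strand clusters were annealed to 100 nM quencher-labelled ATP aptamer, imaged in selection buffer and then after 15 min with 500 uM ATP at 22 °C. Five such cycles were run, with NaOH stripping and re-annealing between them.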
GGATGTACCC: the switch fluorescence ratio came to 1.04.

As to AGTTCTAGTT, the switch fluorescence ratio turned out to be 1.

In the case of TAGAAGGATT, the switch fluorescence ratio stood at 0.993.

Turning to ATCGTGGAGG, the switch fluorescence ratio was 1.01.

For TGCGTTGCAA, the switch fluorescence ratio was 1.04.

Turning to GGATTCCGGT, the switch fluorescence ratio was 0.97.

Turning to TTGGAGTTCC, the switch fluorescence ratio is 1.01.

Turning to GACGGTCCAG, the switch fluorescence ratio turned out to be 1.

In the case of GCTAGTTAAT, the switch fluorescence ratio is 1.

Consider TCAAGGGTTT, for which the switch fluorescence ratio stood at 0.972.

Regarding ATACAATAGC, the switch fluorescence ratio is 1.15.

In the case of CCATTGGCAA, the switch fluorescence ratio was 0.997.

As to TTAACGAGAA, the switch fluorescence ratio amounted to 1.02.

For TCATTACCCT, the switch fluorescence ratio was found to be 1.07.

Regarding GTATGCATTA, the switch fluorescence ratio was found to be 1.04.

In the case of ACCTGCTCCT, the switch fluorescence ratio was 1.13.

Turning to GATTATTTAT, the switch fluorescence ratio turned out to be 0.952.

As to GCCAAAGTCA, the switch fluorescence ratio came out at 0.993.

On to GACCGAGAAT, for which the switch fluorescence ratio is 1.03.

Turning to TTCTGTCGAG, the switch fluorescence ratio turned out to be 0.971.

Take GCTAGTAGAT: the switch fluorescence ratio is 1.02.

Take GGACTTGAGC: the switch fluorescence ratio stood at 1.02.

In the case of AAGAAAACCG, the switch fluorescence ratio amounted to 1.01.

In the case of TAATCCATGG, the switch fluorescence ratio was determined as 1.03.

In the case of GATGGAATGC, the switch fluorescence ratio was determined as 2.75.

Regarding CCAGAATGTG, the switch fluorescence ratio stood at 1.03.

Regarding TAATGTTCGC, the switch fluorescence ratio was determined as 0.921.

For AATTTCGTAT, the switch fluorescence ratio turned out to be 1.04.

For the sequence CAAACCCAGA, the switch fluorescence ratio came out at 0.987.

Consider TGTCGTGCCC, for which the switch fluorescence ratio stood at 0.982.

Turning to TGACTATTCT, the switch fluorescence ratio was found to be 0.98.

As for GAAGCAGTAG, the switch fluorescence ratio amounted to 1.81.

For CCCACAAGGT, the switch fluorescence ratio came to 1.61.

With CCAACGTTAT, the switch fluorescence ratio is 1.86.

With TAAACACCTA, the switch fluorescence ratio was 1.05.

As to GCGGGTAAGT, the switch fluorescence ratio amounted to 1.03.

With ACCGATGGGT, the switch fluorescence ratio was found to be 1.03.

With TTTCAATCGT, the switch fluorescence ratio came to 0.925.

With GCCGGAGACA, the switch fluorescence ratio stood at 0.983.

As for GAAGTGGAAA, the switch fluorescence ratio is 0.982.

On to CACTCTGTTG, for which the switch fluorescence ratio came out at 0.998.

As for CGCATTATT, the switch fluorescence ratio was 1.77.

Regarding TTACCTGGTA, the switch fluorescence ratio was determined as 1.03.

Regarding AAAGTACCG, the switch fluorescence ratio was found to be 1.03.

In the case of GAACTATTGC, the switch fluorescence ratio was found to be 1.

ATATTTGGGT: the switch fluorescence ratio was 1.01.

Take AGGATGTTTC: the switch fluorescence ratio was found to be 0.988.

For the sequence GGCGCTAATT, the switch fluorescence ratio came out at 1.02.

For GACCCTGCTT, the switch fluorescence ratio turned out to be 0.972.

On to AAGGAGCAGA, for which the switch fluorescence ratio stood at 1.04.

In the case of GAATGTGAAT, the switch fluorescence ratio is 0.998.

In the case of CGAGGGCCTA, the switch fluorescence ratio turned out to be 1.

As to TCTTACGA, the switch fluorescence ratio is 1.02.

As to CTCCACGAGG, the switch fluorescence ratio was found to be 2.51.

As for AACTGGGATG, the switch fluorescence ratio was determined as 1.03.

For the sequence CTGAAACTTG, the switch fluorescence ratio worked out at 1.05.

Take CAGGCGTGCT: the switch fluorescence ratio is 0.98.

As to ACATAGGTTT, the switch fluorescence ratio was 0.993.

With TACTTGCATG, the switch fluorescence ratio came to 1.03.

For the sequence GTTTTCGAGA, the switch fluorescence ratio was 1.04.

Consider CCGCAGGCCC, for which the switch fluorescence ratio was found to be 4.13.

ATTAGCCGTT: the switch fluorescence ratio turned out to be 1.05.

For the sequence TATAATGTT, the switch fluorescence ratio came out at 0.988.

TCGGAGGTCT: the switch fluorescence ratio worked out at 1.02.

As for TGTGTTATTG, the switch fluorescence ratio was determined as 0.978.

TATGGTTCGA: the switch fluorescence ratio was determined as 0.973.

In the case of ACAGCGCCGT, the switch fluorescence ratio was 1.03.

As to CCTGGTCCGA, the switch fluorescence ratio came out at 1.08.

Turning to AAAGGGATGG, the switch fluorescence ratio amounted to 0.971.

As for TGGAGCCTCA, the switch fluorescence ratio was determined as 1.02.

On to GACTGGTTGT, for which the switch fluorescence ratio stood at 0.99.

Regarding GCATTCATCG, the switch fluorescence ratio was determined as 0.996.

Turning to TTGATTAAGT, the switch fluorescence ratio amounted to 0.968.

On to GGCGTGGCAA, for which the switch fluorescence ratio turned out to be 0.978.

CGGCCGACTT: the switch fluorescence ratio worked out at 0.995.

Turning to CATTCGGCTG, the switch fluorescence ratio is 1.04.

With CGATTAAGAG, the switch fluorescence ratio was found to be 0.969.

For CGACTGCCTA, the switch fluorescence ratio was found to be 1.12.

Take TGCTTCATAT: the switch fluorescence ratio came to 1.04.
